Data: PubChem BioAssay AID686978 (National Center for Advancing Translational Sciences (NCATS), 2013)
Hit rate of the full screen: of about 420,000 compounds, about 64,000 (15%) were called active. This list was built around the results that the source calls inconclusive (neither active nor inactive); the mix of calls is not that of the screen. Calls follow the shape of the dose curve; as a rule, active = well fitted inhibition curve with a large enough effect; inconclusive = small, poorly fitted or top-dose-only effect; inactive = flat fitted curve, though single readings scatter. Potencies of inconclusive entries are left out as doubtful fits.

Test: qHTS for Inhibitors of human tyrosyl-DNA phosphodiesterase 1 (TDP1): qHTS in cells in absence of CPT; also: nearly all actives have a fitted effect of over 55% in size
Conditions: DT40 Tdp1-/- hTDP1 cells, no CPT, ATP luminescence, 48 h; activity change, negative = growth inhibition: at 46.2 µM (top of the series) unless noted
Procedure, shortened: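 No-CPT arm: Tdp1-/-;hTDP1 DT40 cells (400/well) plus compounds, incubated ≥48 hr at 37 °C. Readout CellTiter-Glo luminescence.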
% is scaled to controls: 0 for no effect and ±100 for the full control effect; potency is read from the fitted curve at half-maximal effect; tags tell the direction and shape of the fitted curve.

Row | Compound | Potency | activity change, negative = growth inhibition
1 | CCOC(=O)C(NC(C)=O)(Nc1ccc(S(N)(=O)=O)cc1)C(F)(F)F (stereo not drawn) | inactive | –
2 | CCCCn1c(NC(=O)C2CCCCC2)nc2ccccc21 | inconclusive [inhibitor, single point] | –
3 | O=C(Nc1ccccc1)N1CCC(O)(c2cccc(C(F)(F)F)c2)CC1 | inconclusive [inhibitor, partial curve, poor fit] | –
4 | COc1ccccc1NC(=O)c1ccc(S(=O)(=O)N(C)c2ccccc2)cc1 | inconclusive [inhibitor, single point] | –
5 | CCc1nc2ccccc2n1CC1CC1(Cl)Cl (stereo not drawn) | inactive | –
6 | COCCNC(=S)N/N=C(\C)c1ccc(Cl)c(Cl)c1 | active: 20.6 µM | –
7 | O=C(Cn1nc(-c2ccccc2)nc1-c1ccccc1)OC1CCCCC1 | active: 18.4 µM | –
8 | CC1CCN(C(=O)c2ccc3c(Cl)c4c(nc3c2)CCCC4)CC1 | inconclusive [inhibitor, single point] | –
9 | COc1cccc(C2=NOC(C(=O)NCc3cccs3)C2)c1 (stereo not drawn) | active: 14.6 µM | –
10 | Cc1cccc(CCNC(=O)C2CCN(c3nc4ccccc4nc3C(F)(F)F)CC2)c1 | inconclusive [inhibitor, partial curve, poor fit] | –
11 | CCC(C)NC(=O)CCc1c(C)nc2cc(-c3ccc(OC)cc3OC)nn2c1C (stereo not drawn) | inconclusive [inhibitor, single point] | –
12 | O=C(c1ccc(Cl)cc1)N1CCCC(C(=O)N2CCc3ccccc3C2)C1 (stereo not drawn) | inconclusive [inhibitor, single point] | –
13 | Cc1nn(C)cc1CN(C)Cc1c(C(=O)N(C)Cc2ccccc2)nc2ccccn12 | – | inconclusive: -30.7% [inhibitor]
14 | O=C(NCCN1CCOCC1)c1cc([N+](=O)[O-])cc([N+](=O)[O-])c1 | inactive | –
15 | COc1ccc2c(c1OC)C(Cc1ccccc1)N1CCc3cc4c(cc3C1C2)OCO4 (stereo not drawn) | active: 11.9 µM | –
16 | Cc1ccc(NC(=O)CS(=O)CC(=O)NC(C)CCc2ccco2)cc1Cl (stereo not drawn) | – | inconclusive: -36.5% [inhibitor]
17 | O=C(Cc1ccccc1Cl)Nc1cccnc1 | inactive | –
18 | CC(=O)n1cc(C2CC(=O)OC3=C2CC(=O)C(C)(C)C3)c2ccccc21 (stereo not drawn) | – | inconclusive: -37% [inhibitor]
19 | CCC(=O)NC1(C(F)(F)F)C(=O)Nc2c1c(=O)[nH]c(=O)n2Cc1ccco1 (stereo not drawn) | – | inconclusive: -32.4% [inhibitor]
20 | Cc1ccccc1CN(c1ccc(C(=O)NCCC2=CCCCC2)cc1)S(C)(=O)=O | inconclusive [inhibitor, single point] | –
21 | COCCN1C(=O)CCC1(C)C(=O)Nc1ccc2c(c1)OCCO2 (stereo not drawn) | inactive | –
22 | OC(COc1ccc2ccccc2c1)CN1CCN(c2ccc(F)cc2)CC1 (stereo not drawn) | – | inconclusive: -35.6% [inhibitor]
23 | COc1c(Br)cc(Br)cc1/C=N/NC(=O)c1cccnc1 | inconclusive [inhibitor, single point] | –
24 | CCOC(=O)c1cc(OC(=O)Cc2ccc(OC)c(S(=O)(=O)N3CCOCC3)c2)cc(C(=O)OCC)c1 | inactive | –
25 | Oc1c(C(c2ccco2)N2CCOCC2)sc2ncnn12 (stereo not drawn) | inactive | –

Row | Compound | Potency | activity change, negative = growth inhibition
26 | O=C(Nc1nc(-c2ccccc2)cs1)Nc1ccc(F)cc1F | active: 9.2 µM | –
27 | S=C(NC1CCCC1)N1CCOCC1 | inactive | –
28 | CNC(=O)c1c(NC(NC(=O)c2ccco2)C(=O)c2ccc(Cl)cc2)sc2c1CCCC2 (stereo not drawn) | inconclusive [inhibitor, partial curve] | –
29 | O=C(NCC1CCCO1)c1ccccc1OCc1ccc(F)cc1 (stereo not drawn) | inconclusive [inhibitor, single point] | –
30 | COc1ccc(CC(=O)NNC(=O)c2c(-c3ccccc3Cl)noc2C)cc1OC | inactive | –
31 | CCOC(=O)N1CCN(C(=O)CSCc2nc(-c3ccccc3C)oc2C)CC1 | inconclusive [inhibitor, partial curve] | –
32 | O=[N+]([O-])c1cc(CN2CCN(c3ccccc3)CC2)c(O)c2ncccc12 | active: 4.11 µM | –
33 | Cc1csc(SC(C)C(=O)NCC2CCCCC2)n1 (stereo not drawn) | inactive | –
34 | COc1ccccc1-c1cc2nc(C)c(CCC(=O)Nc3cc(C)ccc3C)c(C)n2n1 | inconclusive [inhibitor, single point] | –
35 | Cc1cc(N2CCN(S(=O)(=O)c3ccc(Cl)c(Cl)c3)CC2)c2ccccc2n1 | active: 16.4 µM | –
36 | c1ccc2c(C(c3nnnn3-c3ccc4c(c3)OCCO4)N3CCCC3)ccnc2c1 (stereo not drawn) | inconclusive [inhibitor, single point] | –
37 | CCc1cccc(NC(=O)c2ccc(CNS(=O)(=O)c3ccc4c(c3)C(C)(C)C(=O)N4C)cc2)c1 | active: 16.4 µM | –
38 | Cc1ccc(-n2ncc3c(NCC(C)C)ncnc32)c(C)c1 | inconclusive [inhibitor, single point] | –
39 | CC(C)(C)c1nc(CN2CCOCC2)ccc1O | inactive | –
40 | COC(=O)c1ccccc1-n1cc2c(c1-c1cccc(C)c1)c(=O)n(C)c(=O)n2C | active: 7.31 µM | –
41 | O=C(c1ccccc1)c1ccc(CN2C(=O)c3ccccc3C2=O)o1 | inactive | –
42 | CC(C)[C@H](NC(=O)c1cccc(S(=O)(=O)N2CCOCC2)c1)C(=O)OCC(=O)Nc1cccc(Br)c1 | inactive | –
43 | Oc1ccc2ccccc2c1CN1CC2CCC(CC2)C1 | inconclusive [inhibitor, partial curve] | –
44 | Cc1ccc(C(=O)NCCc2nc3ccccc3[nH]2)cc1[N+](=O)[O-] | inconclusive [inhibitor, single point] | –
45 | O=C(NC1CCCC1)C(c1ccccn1)N(C(=O)c1csnn1)c1ccccc1Cl (stereo not drawn) | inactive | –
46 | CC(C)(C)OC(=O)N1CCC(c2c(C(=O)N3CCOCC3)cnn2-c2cccc(F)c2)CC1 | inactive | –
47 | COc1ccccc1CNC(=O)c1oc2ccc(S(=O)(=O)N3CCCC3)cc2c1C | inconclusive [inhibitor, single point] | –
48 | Clc1cccc(OCCN2CCN(CCOc3cccc(Cl)c3)CC2)c1 | active: 2.31 µM | –
49 | S=c1nc[nH]c2c1sc1nc(N3CCOCC3)c3c(c12)CCCC3 | active: 23.1 µM | –
50 | O=C(CSc1nc2c(c(=O)[nH]1)CN(Cc1ccc3c(c1)OCO3)CC2)Nc1ccc(F)c(F)c1 | inconclusive [inhibitor, single point] | –

Row | Compound | Potency | activity change, negative = growth inhibition
51 | COc1ccc(NC(=O)CN2CCN(c3ccc(F)cc3)CC2)cc1 | inconclusive [inhibitor, single point] | –
52 | CC(C)Oc1ccc(C(=O)NC(=S)N2CCOCC2)cc1 | inconclusive [inhibitor, single point] | –
53 | CCCN(CCC)CCNC(=O)C1CCN(c2nc3ccc(CC)cc3s2)CC1 | active: 6.51 µM | –
54 | COc1ccccc1NS(=O)(=O)c1ccc(C(=O)NCc2ccc(S(N)(=O)=O)cc2)cc1 | active: 14.6 µM | –
55 | CCOC(=O)c1cnc2ccc(Cl)cc2c1Nc1ccc(N2CCOCC2)cc1 | active: 14.6 µM | –
56 | OCCC1CN(Cc2cc3c(cc2Cl)OCO3)CCN1C1CCCCC1 (stereo not drawn) | inactive | –
57 | CC(=O)Nc1ccc(NC(=O)C(C)OC(=O)c2cccc(S(=O)(=O)N3CCCCC3)c2)cc1 (stereo not drawn) | inconclusive [inhibitor, single point] | –
58 | O=C(Nc1ccc(C(=O)N2CCN(c3ccccc3)CC2)cc1)c1nsc2ccccc12 | inconclusive [inhibitor, single point] | –
59 | CCCC12CN(C(=O)c3ccc(OC)cc3)CC(C)(CN(C(=O)c3ccc(OC)cc3)C1)C2=O | inconclusive [inhibitor, single point] | –
60 | CCOC(=O)c1c(C)oc2c1c(C(c1cccnc1)N1CCCCC1)c(O)c1ccccc12 (stereo not drawn) | inconclusive [inhibitor, single point] | –
61 | COc1ccc(/C=C/C(=O)NCC2COc3ccccc3O2)c(OC)c1 (stereo not drawn) | inconclusive [inhibitor, single point] | –
62 | Cc1ccc(S(=O)(=O)c2cn(Cc3ccc(F)cc3)c3cc(N4CCCC4)c(F)cc3c2=O)cc1 | inconclusive [inhibitor, partial curve] | –
63 | OC(c1ccc(Cl)cc1)c1ncc(-c2cccc(F)c2)[nH]1 (stereo not drawn) | inconclusive [inhibitor, single point] | –
64 | Cc1cccc(NC(=O)CN2CCN(C(=O)c3ccc(-c4nc5ccccc5s4)o3)CC2)c1C | inconclusive [inhibitor, single point] | –
65 | O=C(c1ccccc1)c1ccc2nc[nH]c2c1 | inconclusive [inhibitor, single point] | –
66 | Cc1ccc(S(=O)(=O)N2CCC(n3c(C)nc4cccnc43)CC2)c(C)c1 | active: 7.31 µM | –
67 | CCCN(CCC)Cc1cc(=O)oc2cc3c(cc12)CCC3 | inconclusive [inhibitor, single point] | –
68 | CCOc1ccc(CCNC(=O)c2cc3sc(CC)cc3n2C)cc1OCC | active: 11.6 µM | –
69 | COc1cc2c(cc1O)CCC1C2CC[C@@]2(C)C1CC[C@@H]2O (stereo partly drawn) | active: 1.88 µM | –
70 | Cc1cccc2cc(/C=N/NC(=O)[C@H]3C[C@@H]3c3ccccc3)c(Cl)nc12 | inactive | –
71 | CCc1ccccc1NC(=O)C(=O)NCCc1sc(-c2cccc(F)c2)nc1C | inconclusive [inhibitor, single point] | –
72 | COc1ccc(S(=O)(=O)N2CC=C(C(=O)NC3CCCC3)CC2)cc1 | inconclusive [inhibitor, single point] | –
73 | COc1ccc(C2=NS(=O)(=O)N(C)C(C(=O)NCc3ccc4c(c3)OCO4)=C2)cc1OC | inconclusive [inhibitor, single point] | –
